Reference: PubChem BioAssay AID488969 (Vanderbilt High Throughput Screening Facility, 2010)
In all, about 110,000 compounds were measured (“z-score”: median about -0.1, highest 2% from about 2 on). The list shows a part of the results. Activity calls are given as the source filed them.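 The calls were made as follows: active = z-score in the third read window above 3 or below -3; inactive = the rest.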

Target: Metabotropic glutamate receptor 8 (Rattus norvegicus) (UniProt P70579)
Assay: mGluR8 Gi/Go-coupled signaling modulation – cell-based, rat, thallium flux, HTS, primary screen (AID 488969)
Details: HEK293 rat mGluR8, GIRK (G protein-gated inwardly rectifying potassium channel) thallium flux, FluoZin2; at 10 µM; stronger effect = higher value; submaximal glutamate (EC20) added with thallium

Sequence of UniProt P70579 (P70579 whole entry, looked up): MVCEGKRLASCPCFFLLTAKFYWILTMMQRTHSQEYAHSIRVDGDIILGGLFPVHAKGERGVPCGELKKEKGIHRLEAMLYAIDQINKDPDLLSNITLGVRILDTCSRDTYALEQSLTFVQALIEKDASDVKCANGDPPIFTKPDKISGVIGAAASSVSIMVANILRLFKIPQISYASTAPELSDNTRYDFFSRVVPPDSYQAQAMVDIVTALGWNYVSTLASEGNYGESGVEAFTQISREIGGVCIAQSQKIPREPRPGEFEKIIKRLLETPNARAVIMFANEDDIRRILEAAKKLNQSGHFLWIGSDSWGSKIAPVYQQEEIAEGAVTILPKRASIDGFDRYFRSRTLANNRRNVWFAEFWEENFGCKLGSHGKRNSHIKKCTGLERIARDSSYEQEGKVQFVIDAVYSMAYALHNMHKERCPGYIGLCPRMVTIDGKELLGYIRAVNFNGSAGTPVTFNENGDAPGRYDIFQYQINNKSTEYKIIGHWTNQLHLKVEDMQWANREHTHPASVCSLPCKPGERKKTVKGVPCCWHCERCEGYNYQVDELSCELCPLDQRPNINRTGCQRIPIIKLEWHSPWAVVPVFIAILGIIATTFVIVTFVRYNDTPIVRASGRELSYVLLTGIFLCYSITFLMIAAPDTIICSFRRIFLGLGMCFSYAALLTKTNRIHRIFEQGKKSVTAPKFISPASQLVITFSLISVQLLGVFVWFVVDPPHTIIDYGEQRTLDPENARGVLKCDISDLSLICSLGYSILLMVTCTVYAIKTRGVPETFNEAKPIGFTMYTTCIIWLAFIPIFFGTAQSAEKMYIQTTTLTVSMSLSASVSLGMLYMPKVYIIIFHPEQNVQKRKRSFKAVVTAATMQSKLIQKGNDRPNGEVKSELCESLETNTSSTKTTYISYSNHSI

| SMILES | z-score |
| --- | --- |
| Cc1onc(-c2ccccc2Cl)c1C(=O)N1CCc2ccccc2C1 | -0.95 |
| COc1ccc(NC(=O)c2ccccc2NC(=O)CSc2ccc(Cl)cc2)cc1 | 0.0857 |
| COc1ccc(N(CC(=O)Nc2ccc3c(c2)OCO3)S(=O)(=O)c2ccccc2)c(OC)c1 | -0.555 |
| CCCCN(C(=O)Cn1nnc2ccccc21)C(C(=O)NCCOC)c1cccs1 (stereo not given) | 1.44 |
| CCOC(=O)c1c(Cc2ccc(Cl)cc2)c[nH]c1C | -0.453 |
| Cc1nc2ccc(C(=O)N3CCN(c4ccccn4)CC3)cc2s1 | 0.0972 |
| CCc1nnc(NC(=O)C2CCN(S(=O)(=O)Cc3ccccc3)CC2)s1 | -0.126 |
| COc1cccc(OC)c1C(=O)Nc1nnc(C(C)C)s1 | 0.62 |
| Cc1cc(C(=O)Nc2nc3c(C)cccc3s2)c(C)o1 | -0.249 |
| O=C(Nc1cccc(NC(=O)c2cccnc2)c1)c1cccnc1 | -0.515 |
| CC(=O)C1=NN(c2ccccc2)C(c2cccs2)N1c1ccc(N(C)C)cc1 (stereo not given) | 0.04 |
| CCCn1c(CC)nc([N+](=O)[O-])c1Sc1ccc(C)cc1 | -0.237 |
| CCn1cc(C(=O)Nc2cc3c(cc2NC(C)=O)OCCO3)c(=O)c2ccc(C)nc21 | -0.248 |
| C=CCN(C(=O)Cn1nnc2ccccc21)C(C(=O)NCCOC)c1ccc(OC)cc1OC (stereo not given) | 0.024 |
| COc1ccc(Cn2nnnc2C(C(C)C)N2CCN(c3ccccc3OC)CC2)cc1 (stereo not given) | -0.562 |
| CC(C)(C)c1ccc(-c2c(C#N)c(N)nc3c2CCCC3)s1 | -0.139 |
| O=C(N/N=C/c1cn(-c2ccccc2)nc1-c1ccccc1)c1ccco1 | -0.161 |
| CCOc1cc(CNc2ccc3c(c2)OCCO3)cc(Br)c1OCC | 0.325 |
| Cc1ccc2[nH]c3c(=O)n(Cc4ccccn4)cnc3c2c1 | -0.645 |
| CCC(=O)Nc1nnc(CCc2ccccc2)s1 | -0.331 |
| CCCC(=O)Nc1ccc(C(=O)NCc2ccccc2Cl)cc1 | 0.219 |
| Cc1cc(=O)oc2cc(OC(=O)CCCCCN3C(=O)c4ccccc4C3=O)ccc12 | -0.272 |

| SMILES | z-score |
| --- | --- |
| Cc1c(NC(=O)CSc2nc3ccccc3s2)c(=O)n(-c2ccccc2)n1C | -1.17 |
| CCOC(=O)c1c2c(c(=S)n(-c3ccccc3)c1N)CCC2 | -0.0535 |
| Cc1onc(-c2c(F)cccc2Cl)c1C(=O)N1CCc2ccccc21 | 0.0163 |
| CC(C)Oc1ccc(C(=O)NNC(=O)c2ccccc2C(=O)O)cc1 | 0.741 |
| O=C(/C=C/c1ccccc1)CC(O)(c1ccccc1)C(F)(F)F (stereo not given) | -0.548 |
| Clc1ccc(CSc2nnc3ccccn23)c(Cl)c1 | -4.51e-05 |
| COC(Cc1n[nH]c(=S)n1-c1ccc(Cl)cc1)OC | -0.147 |
| Cn1c(SCc2ccc(Br)cc2)nnc1-c1ccncc1 | -0.143 |
| CCOC(=O)c1sc2cc([N+](=O)[O-])cc(SCC(C)C)c2c1N | 0.221 |
| Cc1cc(N)ccc1N=Nc1c(C)n(C)n(-c2ccccc2)c1=O | -0.136 |
| COc1ccc(-c2nc(SCC(=O)Nc3cc(C)on3)n[nH]2)cc1 | -0.536 |
| COc1ccc(/C=C/c2ccncc2)cc1 | 0.357 |
| COC(=O)c1ccc(C(=O)OC)c(NC(=O)COC(=O)C2CCC(C(C)(C)C)CC2)c1 (stereo not given) | 0.00256 |
| COc1ccccc1Oc1cc(F)nc(N)n1 | -0.0954 |
| Cc1ccc(C)c(N(CC(N)=O)S(C)(=O)=O)c1 | -0.254 |
| CC(=O)Nc1cccc(Oc2cc(C#N)c(C#N)cc2N2CCOCC2)c1 | -0.086 |
| COc1cc(Br)c(S(=O)(=O)Nc2c(C)n(C)n(-c3ccccc3)c2=O)cc1OC | -0.396 |
| N#CC1=C(N)OC2=C(C(=O)CCC2)C1CCc1ccccc1 (stereo not given) | -0.153 |
| C=CCn1c(SCC(=O)NC(=O)NC2CCCC2)nnc1C1CCCCC1 | -0.691 |
| CCc1ccc2c(CN(CC)Cc3nc4ccccc4c(=O)[nH]3)cc(=O)oc2c1 | -0.389 |
| CCOc1cc(C2Nc3cccc4cccc(c34)N2)ccc1O | -1.37 |
| COC(=O)c1ccc(CSc2nc3c(cnn3-c3ccc(Cl)cc3)c(=O)[nH]2)o1 | -0.236 |

| SMILES | z-score |
| --- | --- |
| Cc1ccc(Nc2nc(N)nc(CN3CCc4ccccc4C3)n2)cc1 | 0.216 |
| O=C(Cn1ncc2c1-c1ccccc1OC2)Nc1ccc(Cl)cn1 | -0.092 |
| COc1ccc(N=c2scc(-c3ccc(OC)cc3)n2CCO)cc1 | -0.174 |
| CCCN1Cc2cccc(C(=O)Nc3ccc(CC)cc3)c2C1=O | -0.0573 |
| CCOC(=O)c1ccc(N/C(=N\S(=O)(=O)c2ccc(F)cc2F)c2ccccc2)cc1 | -0.265 |
| CCc1c(C#N)c(SCCC(=O)Nc2ccc(C)cc2)nc2c1C(=O)CC(C)(C)C2 | -0.656 |
| Cc1cc(C)n(C(=O)c2cc3c(s2)CCCC3)n1 | -0.378 |
| Cc1ccc(NC(=O)CSc2nnc(-c3ccccn3)n2C)cc1 | -0.197 |
| CCN(C(=O)c1cn(C)c(=O)c2cc(OC)c(OC)cc12)c1ccccc1C | -0.294 |
| Cc1oc(-c2cccc(Cl)c2)nc1CN1CCCC(C(=O)NCc2ccco2)C1 (stereo not given) | -0.867 |
| CCOC(=O)c1cn(-c2ccccc2CO)c2c(F)c(F)c(F)cc2c1=O | -0.237 |
| Cc1[nH]c(=O)[nH]c(=O)c1S(=O)(=O)N1CCCC1 | -0.107 |
| CCCCN(C(=O)CSc1nnc(Nc2ccc(C)c(C)c2)s1)c1c(N)n(Cc2ccccc2)c(=O)[nH]c1=O | 0.0297 |
| Cc1ccc(N(C(=O)C2CCC(=O)N2)C2(C(=O)NC3CCCC3)CCCCC2)cc1 (stereo not given) | 0.0276 |
| CCOC(=O)c1ccc2c(c1)nc(SCc1cn3ccsc3n1)n2CC | -2.52 |
| O=C(NNc1cccc(Cl)n1)c1c(Cl)cccc1Cl | -0.0235 |
| COc1ccc(OC)c(NC(=O)CSc2nc3cccnc3n2C)c1 | -0.242 |
| O=C(CCC(=O)N1CCCC1)Nc1nnc(C(F)(F)F)s1 | 1.45 |
| C=CCn1c(=O)c2ccccc2n2c(SC(C)C(=O)Nc3nc(-c4ccccc4)cs3)nnc12 (stereo not given) | 1.12 |
| CC(C)NCCOCCSc1ccc(Cl)cc1 | 0.335 |
| CSC1=NCCN1C(=O)c1ccc(Br)o1 | 0.631 |
| Cc1cc(C)c(NC(=O)Cc2ccc(-n3cccc3)cc2)c(C)c1 | 0.0542 |

| SMILES | z-score |
| --- | --- |
| Cc1ccc(N=CC2=C(O)CC(C)(C)CC2=O)nc1 | -0.136 |
| COc1ccc(CNC(=O)CN(Cc2ccccc2)S(=O)(=O)c2ccc(Cl)cc2)cc1 | -0.547 |
| Cc1cc(-c2n[nH]c(=S)n2/N=C/c2cccc([N+](=O)[O-])c2)n[nH]1 | -0.221 |
| CCc1c(C)nc(SC(C(=O)O)c2ccccc2)c(C#N)c1C (stereo not given) | -0.69 |
| O=C(Cn1nc(CNc2ccc(Cl)cc2)[n+]2c1CCCCC2)c1ccc(Cl)cc1 | -0.172 |
| O=[N+]([O-])/C=C/c1cn(Cc2ccc(Cl)cc2)c2ccccc12 | -0.16 |
| COc1ccc(C2c3c(C)nn(-c4ccccc4)c3NC(=O)N2c2ccccc2)cc1 (stereo not given) | -0.155 |
| Cc1c(C(=S)Nc2ccccc2)cnn1-c1ccc([N+](=O)[O-])cc1 | -0.283 |
| O=C(CCN1C(=O)C2C3C=CC(C3)C2C1=O)N1CCN(c2ccccn2)CC1 (stereo not given) | 0.834 |
| COc1ccc(NS(=O)(=O)c2ccc(NC(C)=O)cc2)cc1OC | -0.16 |
| COC(=O)c1cc2sccc2n1Cc1nc(-c2ccc(Cl)cc2)oc1C | -0.154 |
| CCOC(=O)c1c(-c2cccs2)csc1NC(=O)CN(CC)CC | -0.944 |
| Cc1ccc(SC/C(O)=C(\C#N)c2nc3ccccc3s2)cc1 | -1.38 |
| O=S(=O)(Nc1nc2c(s1)CCCC2)c1ccc(F)cc1 | 0.267 |
| O=C(CN1C(=O)NC2(CCCCCCC2)C1=O)NC1CCCc2ccccc21 (stereo not given) | -0.288 |
| CC(=O)NC(=O)c1nnn(Cc2ccccc2)c1NC(C)=O | 0.442 |
| N#C/C(C(=O)Oc1ccccc1)=C1/Nc2ccccc2-c2ccccc21 | 0.303 |
| O=C(Nc1ccc(-c2nc3cc(Cl)ccc3o2)cc1)C1CCCO1 (stereo not given) | 0.417 |
| O=C(N/N=C/c1ccco1)c1ccccc1OCc1ccc(Br)cc1 | -0.577 |
| Cc1cc(C)nc(N/N=C/C(Cl)=C/c2ccccc2)n1 | 0.0852 |
| O=C(CN1C(=O)/C(=C\c2cccc(F)c2)Oc2ccccc21)N1CCN(c2ccccn2)CC1 | 0.117 |
| CCCCN(N=Nc1nonc1OC)c1nonc1OC | -0.795 |

| SMILES | z-score |
| --- | --- |
| COc1ccccc1OC1=NS(=O)(=O)c2ccccc21 | -0.276 |
| CCc1ccccc1S(=O)(=O)Cc1ccc(C(=O)N2CCN(c3ccccn3)CC2)o1 | -0.522 |
| CCN(CC#CCC(O)(c1ccccc1)C1CCCC1)C(C)C (stereo not given) | 0.221 |
| ONC(=Nc1ccccc1)C(=Nc1ccccc1)NO | -0.64 |
| O=C(CSc1nc2cc(Cl)ccc2s1)Nc1cccc(S(=O)(=O)N2CCOCC2)c1 | 0.779 |
| O=C(O)/C=C/c1ccccc1Oc1ccccc1 | -0.093 |
| CNC(=O)CC(=O)Nc1ccccc1C(=O)O | -0.164 |
| O=C(CSc1nnc(-c2ccc(F)cc2)o1)Nc1ccc(S(=O)(=O)N2CCCCCC2)cc1 | -0.717 |
| N#C/C(=C/c1ccc([N+](=O)[O-])cc1)C(=O)Nc1ccccc1O | -0.335 |
| Cc1ccc(-c2ccc(CCC(=O)O)o2)cc1 | -0.192 |
| CCOc1ncccc1C(=O)N1CCN(Cc2ccc3c(c2)OCO3)CC1 | -0.175 |
| COc1ccccc1/C=C1\SC(=S)N(Nc2nc(C)cc(C)n2)C1=O | -0.21 |
| COc1nnc(-c2ccc(C)c(S(=O)(=O)NCCO)c2)c2ccccc12 | -0.0626 |
| COc1ccc(C(=O)Nn2cnc3ccccc3c2=O)c(OC)c1 | -0.153 |
| CC(=O)Nc1nc(S(=O)(=O)c2ccc(C)cc2)c(Cl)s1 | 0.259 |
| Cn1c(CN2CCN(C(=O)c3ccccc3)CC2)nc2cc([N+](=O)[O-])ccc21 | 0.0497 |
| CCC(=O)NC(=S)Nc1ccccc1C(=O)OC | -0.308 |
| CC1(C)Cc2c(C#N)c(SCc3nc4ccccc4[nH]3)nc(N3CCOCC3)c2CO1 | 0.986 |
| CC1(C)NC(=O)N(CC(O)COC2CCCCC2)C1=O (stereo not given) | 0.197 |
| Cc1ccc(C(=O)N2CCCCCC2)cc1Br | -0.0137 |
| COc1ccc(-c2ccc(C#N)c(SCC(=O)Nc3sc4c(c3C#N)CCC4)n2)cc1OC | -0.0669 |
| COc1ccc(C(=O)N/N=C/c2ccc3cccc(OCc4ccccc4)c3n2)cc1 | active: 3.81 |
